# Measured values from the supplement of paper PMC10185492.
# This is one part of the list. These are enrichments in a pooled selection; single values are uncertain.
# Tested on: SARS-CoV-2 3CLpro (nsp5)
# Assay: substrate phage enrichment score (protease-eluted vs HEPES control, +1 offset) (ratio); higher = better cleaved substrate
# Details: selection round: 4; protease elution time: 15 min
# Method: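 Random heptapeptide substrate phage display (M13 pIII fusion, heptapeptide between an N-terminal biotinylated AviTag GLNDIFEAQKIEWHE and pIII; phages immobilised on streptavidin) eluted by cleavage with 50 nM protease in 20 mM HEPES at 37 °C. Selected phages were NGS sequenced, and the enrichment score is (reads in protease sample + 1)/(reads in HEPES blank-selection control + 1).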
row,Substance,substrate phage enrichment score
1,LEAPLTT,> 51
2,QSTTRTS,12.2
3,IWAAHHH,0.368
4,WPAAHHH,1.39
5,LHKSSST,2.22
6,FAGMRSM,1.36
7,KTQYFQG,4.33
8,DSFGAYT,5.2
9,ERKPCGL,0.125
10,SRAGVTW,> 21
11,RVSIRCR,> 43
12,SRPHIII,0.476
13,CSYRLRP,0.55
14,AGPEQMN,> 27
15,YLIQCEQ,> 41
16,TNAATMQ,> 45
17,PPIGNAS,> 27
18,SGAAETC,1.81
19,CGAGQSP,> 42
20,RSAAHHH,0.87
21,ASCRPVK,> 21
22,LPCPTLR,> 24
23,KGCLLTR,> 40

row,Substance,substrate phage enrichment score
1,YPCCWQT,> 45
2,SRVLGVG,> 26
3,HHHHHGA,0.236
4,GLWCPRC,> 30
5,CAAAPQH,1.42
6,ISETTFP,0.6
7,IRPVCEK,> 55
8,DGARRDG,1.72
9,GLGAGNQ,1.13
10,AARVPGE,> 34
11,SRCGDTR,> 32
12,PNESAGI,> 23
13,WRQPSQR,0.685
14,TVLQSYP,20
15,RPLPETN,0.138
16,SPQLCQP,> 41
17,QVPTKWR,1.38
18,VNYYSPR,> 24
19,PQSAETL,7
20,GLNNTQT,6.67
21,VPRDLRQ,1.01
22,STCGPKG,> 32
23,SDTRMNR,> 45

row,Substance,substrate phage enrichment score
1,TYEKPQK,0.417
2,ETSRPER,10
3,IPTATLT,2.04
4,NELTPAK,> 25
5,ACMTGPV,6.67
6,RVKLQAQ,> 66
7,RCYSTLQ,> 169
8,KENNSRG,2.71
9,ASGTGVS,12.7
10,TNATGIS,> 22
11,ESYFQGG,0.533
12,NRDLSAQ,> 49
13,HERTHFW,2.24
14,SWPSYRQ,13.7
15,QRNQWYQ,5
16,LNYYKRD,1.46
17,WQYNTYG,1.56
18,AEQQRLQ,2.3
19,KARDNRG,> 26
20,KSRLMPG,0.158
21,PRAKRDI,0.00717
22,DMRASQP,6.4
23,NSNIMKA,1.69

row,Substance,substrate phage enrichment score
1,TNAAAHH,0.4
2,HPERNDV,7.33
3,VQYFQGG,6.67
4,LQSRTDT,> 49
5,CFYPELQ,> 66
6,SKSSYMG,7
7,KKNYNEQ,1.41
8,AHEHSWP,0.467
9,PYCCARN,1.29
10,GARLTPR,0.562
11,WSSAAHH,0.692
12,SGSDTQC,2.71
13,VESASSD,1.89
14,SSPCKLQ,> 39
15,ESRPRTN,0.48
16,KAAAHHH,0.968
17,HERQETR,0.087
18,SRGTAEL,10
19,RSTWSKP,> 23
20,AHAGWHK,1.64
21,DSAAHHH,0.255
22,LSMPADR,> 64
23,SPTTILQ,> 47

row,Substance,substrate phage enrichment score
1,TWMTQLQ,> 40
2,MHGVHDR,> 53
3,CLRQPIN,3.62
4,PSAHHHH,0.375
5,PRATSVT,3.83
6,RASKIGI,> 34
7,KQYGQGG,1.27
8,GSERSCR,7.33
9,SQSACHK,0.0972
10,RTANPFR,0.167
11,AKRDTEI,5
12,KRQYLQP,> 27
13,SGTDESL,3.18
14,AVRCELQ,> 124
15,ICAPRPS,> 35
16,ETTSRES,0.25
17,KQCVTRN,1.88
18,LYRERPD,15
19,RGHWTTQ,1.71
20,VTRTHLQ,> 42
21,RQSVQKH,> 32
22,HSRKDCG,1.52
23,FPFRTNH,1.46

row,Substance,substrate phage enrichment score
1,RGLCICR,> 22
2,SKSPQVF,20.3
3,KGQVPSP,0.0882
4,LSNPVDY,0.8
5,RRILRFR,> 139
6,PRLPSLQ,> 23
7,SSGSVAC,> 21
8,YWPTKKG,0.316
9,GERHVSC,6.2
10,SCTHRWP,79
11,QDAPRIL,4
12,CLAAHHH,0.606
13,TDVKQFQ,1.2
14,QHKALSR,> 24
15,ANEIHFG,0.967
16,TPGTSSN,> 27
17,SKAGREE,6.25
18,ICMAGEC,4.5
19,PHAIRSH,1.44
20,RSTAHHH,0.0909
21,EPTYPLS,> 24
22,ATWTIRA,3.38
23,KAHGTGT,> 21

row,Substance,substrate phage enrichment score
1,GSTSTLP,4.6
2,PNSMHPK,0.353
3,ARGIELR,3.57
4,EEPPGGC,0.556
5,SSESWTT,0.565
6,SKPSACR,10
7,THAKPQS,7.75
8,RATRARE,0.522
9,WYRCPAR,9.33
10,HKTSYVK,2.43
11,SNALFRN,> 22
12,ERCTTLH,> 36
13,EPNTPIT,> 33
14,THAAVTP,3.12
15,CWAAHHH,0.414
16,GCAESMC,1
17,LYFKGGS,1.67
18,PNERNSR,> 37
19,TCNVNLQ,> 245
20,LTGSMLQ,58
21,HEATARD,> 21
22,GSQTQCS,8.5
23,EASTEYG,0.357

row,Substance,substrate phage enrichment score
1,QYAPGMT,6.25
2,KGVDRTL,27.7
3,PLMNMAE,> 27
4,CKNSSQL,6.43
5,YLLPGKQ,> 26
6,GRHVILQ,> 105
7,LHARPGQ,> 29
8,SCRRPRD,1
9,PAPMEPS,> 23
10,SKVRMGS,> 22
11,YCRGNLN,> 31
12,VIPTTVN,> 23
13,AEYRASC,> 21
14,SSRQSVR,> 48
15,VLPHIII,0.75
16,IYTVTEQ,> 23
17,SWSQFYR,9
18,PILRNRN,0.087
19,AGLSPNR,> 65
20,TATPRPL,3.8
21,QCDRPEK,> 34
22,ACVDMLT,> 22
